Whole data set: some 33,000 sequences, median “E-score (-0.5 to 0.5)” near -0.053, cut for the highest 2% near 0.37. The list shows a part of the results.
The sequences below were run against Hap1 (UniProt P0CE41) (assay: PBM E-score (8-mer binding enrichment) (E-score (-0.5 to 0.5)); higher = stronger / more preferred TF binding; most listed sequences are background and not binding sites). Settings: protein concentration: 200 nM; construct: GST-DNA-binding domain.
Protocol: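 Universal 'all 10-mer' protein binding microarrays (Agilent AMADID 015681) probed with GST-tagged S. cerevisiae TFs (full-length or DBD) made by in vitro transcription/translation (PURExpress), about 100-200 nM. Bound TF was detected with fluorescent anti-GST. Each ungapped 8-mer (which stands for itself and its reverse complement) is scored by the PBM enrichment score (E-score), a modified Wilcoxon-Mann-Whitney statistic from -0.5 to +0.5, computed with the Universal PBM Analysis Suite. Scale: above 0.35 generally sequence-specific binding.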

Chain of UniProt P0CE41 (P0CE41 whole entry, the tested form may be a part): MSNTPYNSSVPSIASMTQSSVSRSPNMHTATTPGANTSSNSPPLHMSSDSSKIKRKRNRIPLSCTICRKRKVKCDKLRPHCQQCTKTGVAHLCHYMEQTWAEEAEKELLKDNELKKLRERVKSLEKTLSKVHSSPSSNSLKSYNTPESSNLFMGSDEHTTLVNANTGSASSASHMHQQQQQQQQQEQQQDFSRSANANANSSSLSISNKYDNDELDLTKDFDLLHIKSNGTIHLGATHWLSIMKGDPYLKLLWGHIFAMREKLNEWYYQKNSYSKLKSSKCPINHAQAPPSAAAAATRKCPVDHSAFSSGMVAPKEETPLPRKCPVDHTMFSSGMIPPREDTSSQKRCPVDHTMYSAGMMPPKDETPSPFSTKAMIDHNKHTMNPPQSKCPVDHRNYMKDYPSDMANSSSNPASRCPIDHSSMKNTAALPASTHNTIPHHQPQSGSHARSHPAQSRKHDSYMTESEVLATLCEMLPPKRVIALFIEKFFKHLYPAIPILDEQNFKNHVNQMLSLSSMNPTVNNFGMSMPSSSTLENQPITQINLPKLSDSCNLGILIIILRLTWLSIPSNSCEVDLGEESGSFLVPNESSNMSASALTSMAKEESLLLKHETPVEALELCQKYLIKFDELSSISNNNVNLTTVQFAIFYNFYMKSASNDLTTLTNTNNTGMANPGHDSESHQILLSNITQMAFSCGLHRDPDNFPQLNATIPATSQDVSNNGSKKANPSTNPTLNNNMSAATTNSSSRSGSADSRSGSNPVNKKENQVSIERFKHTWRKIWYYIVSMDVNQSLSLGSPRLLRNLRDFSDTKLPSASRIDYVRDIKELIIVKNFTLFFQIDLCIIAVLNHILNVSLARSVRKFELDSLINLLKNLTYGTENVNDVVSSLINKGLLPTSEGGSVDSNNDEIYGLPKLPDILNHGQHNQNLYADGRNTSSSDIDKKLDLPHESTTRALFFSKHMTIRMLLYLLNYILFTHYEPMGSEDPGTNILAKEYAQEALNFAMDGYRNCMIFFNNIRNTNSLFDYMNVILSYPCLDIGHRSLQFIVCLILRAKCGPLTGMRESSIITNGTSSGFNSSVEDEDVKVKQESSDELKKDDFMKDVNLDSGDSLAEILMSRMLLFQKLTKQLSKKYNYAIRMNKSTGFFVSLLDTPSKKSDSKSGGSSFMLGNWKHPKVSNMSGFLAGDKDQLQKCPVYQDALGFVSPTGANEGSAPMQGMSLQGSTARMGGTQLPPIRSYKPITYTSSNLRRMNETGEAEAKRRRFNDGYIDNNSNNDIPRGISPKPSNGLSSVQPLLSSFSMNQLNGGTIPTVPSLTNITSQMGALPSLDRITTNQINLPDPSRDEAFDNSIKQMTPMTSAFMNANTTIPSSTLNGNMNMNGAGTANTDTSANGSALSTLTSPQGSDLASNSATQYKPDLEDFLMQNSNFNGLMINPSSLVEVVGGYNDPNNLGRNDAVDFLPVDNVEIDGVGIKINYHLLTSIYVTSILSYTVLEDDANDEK

Sequence	PBM E-score
GTTGTAGA	-0.159
CGTTGCTC	0.0464
ATCCCGCG	0.299
ACGATACC	0.179
CGTGTCTC	-0.172
AAGCAGAT	-0.037
TGCGATAA	0.201
CGTACACA	-0.203
ATGTCACC	-0.0329
ATGTAGAA	-0.0195
AAATCGCC	0.205
CAATCAAG	-0.163
CACAGTTA	-0.268
CGAAAAGA	0.214
CGTACGCC	0.172
GGGAGCTA	-0.0847
ATAAGGCA	-0.162
GAGCGTGA	-0.183
CTCGTGGA	-0.057
ATGAGTTG	0.0535
GAAAGCCA	-0.0997
CTGTCACA	-0.244
AAAAATTA	-0.029
ATGCGTGC	-0.133
GAATGTCC	0.159

Sequence	PBM E-score
AAGGATCA	-0.206
ATGAAGAC	-0.171
AACTTTAA	-0.0237
TAGCTGGA	-0.307
TGAGCTCA	-0.115
CATCAACA	0.101
CACATGTG	-0.198
AGACTGGA	0.0047
AATGTCCG	0.443
ATGATGTC	-0.00256
ACTGAAAT	-0.242
CCCTCAGG	-0.142
AGTTACTG	0.0112
AGAAATGG	-0.123
CCTGGCTA	-0.227
CACAAGGC	-0.151
CAGGAGTC	-0.0202
AACGTGGC	-0.246
ACTCGGGA	0.226
CGATCCGC	0.304
AGTATTAC	-0.0512
GACCTGCC	-0.107
CGGTAAAA	0.321
CACTAACG	-0.136
CCTTCCTC	-0.275

Sequence	PBM E-score
GCGTGACC	-0.0276
GAATATTC	0.117
AAGCCCAA	-0.122
CACAGAGA	-0.239
CAATCTAG	0.00122
CAACCGGA	0.316
CGTGTACA	-0.0917
CACTTTAA	0.00194
CCTAGACG	-0.242
CTAATTTA	-0.137
CACTGCAG	-0.103
AGATTCGC	-0.0351
ATACCACG	0.0652
ATGGCGTG	-0.206
GAAAGCGC	0.116
GAACCTTC	-0.0929
GTAAAAGA	-0.215
ACCAAAGT	-0.104
CGAAGCAG	0.0324
AACCAGTG	-0.205
TTCCTCAA	-0.183
ACAGCTGG	-0.175
GAGTACTC	0.0539
GCAGTGTA	-0.155
AACACTCA	-0.0112

Sequence	PBM E-score
AGGAGCCA	-0.325
TGGTGGAA	-0.191
ACAGGCCG	0.192
ACTGACGA	-0.0969
AGATACTC	-0.0989
AGTCTCCG	0.362
GCTGCCAC	-0.0119
AAGGACAT	-0.0738
GAAAAATA	0.0403
ACCAGCTC	-0.0516
CGTCAACG	0.0515
ACATCGCG	-0.0355
TAAGTTAA	0.0727
GATTGTGC	-0.0311
TCGGTAAA	0.249
CCTGCCGC	-0.124
CCGCCGCG	0.278
ATCCTTTG	-0.00548
ACCTTTTA	-0.198
GATCGGCC	0.331
GTATGCAC	-0.112
CACTTTTC	0.0512
ATGCCCGG	0.354
AAAATCCT	0.0522
CCTGGATA	-0.108

Sequence	PBM E-score
GTGTTATA	-0.0285
CCAAAAAG	-0.165
ACCACGGG	-0.0102
AATTTTAC	-0.0695
ACATTAAG	-0.209
CCCGCCGA	0.323
ACCGGTTA	0.304
GTTGGGTA	-0.208
GGAGGCTA	0.0314
CCCAAGGC	-0.0818
ATAATCGC	0.0499
CAGATGCA	-0.247
AACCACGA	0.0191
CATAACCC	0.0105
CTTGCAAA	0.0682
GAATTGTA	-0.205
AGAAACAA	0.0172
CATGGCGG	0.106
ATACAGAA	-0.0178
CCGTGGCG	0.221
CCTTAAAG	-0.146
AGCTGGTG	0.0394
CATTTAGG	-0.112
GCTTCGGA	0.327
GATTATGA	0.0407

Sequence	PBM E-score
CAAGTTCA	0.0306
CGCGGCTC	0.109
CCGTTCGA	0.0421
CTGCAGAA	-0.114
AGGGGTAT	-0.0522
CTATAATA	0.0434
CAAGCATA	-0.0814
GTCGCGGA	0.16
AACATAGC	0.015
CACATCCA	-0.0146
GCATAGGC	-0.313
ACAACACT	-0.0976
CCAAATAC	-0.0681
ACGCCGTA	0.0761
GGATGTTA	0.179
CTCGGAAA	0.346
CTTGCAGA	-0.0562
CCCTCTTA	-0.13
AAGGCTTG	-0.0599
CAACGTAC	-0.303
CGATAGCG	0.26
CCAGCGGA	0.176
ACTAAATA	-0.0994
ACGCATGC	0.00073
TCCTTGAA	-0.0959

Sequence	PBM E-score
AGGGTTCG	-0.0597
TATTGACA	-0.082
ACGGATAT	0.43
CCAGGTCC	0.174
CTCTCACC	-0.101
ACAGCCCT	-0.107
CGACATCG	0.229
GTTATCTA	0.0137
AACACCGT	0.245
GACCAGCA	-0.0864
AATTAGCT	-0.00426
GCCCCCCC	-0.145
CTGCGGAA	0.112
AGCGCGAA	0.0606
GATATTCA	0.0076
CGGCTCGA	0.245
ATGGATGG	-0.0356
ATTACCGG	0.434
TCTAGTAA	0.0175
CATCCTGG	-0.102
ACAGCCGT	0.0994
CGTAGGAA	-0.182
